Data as given in the supplement of paper PMC11417369.
± gives the standard deviation of the averaged measurements. The list shows a part of the results.

tested on: PfAP2-EXP AP2 domain (GST-tagged); assay: gcPBM binding intensity (ln(normalized median fluorescence intensity)); higher = stronger DNA binding
Summary of the method: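 An Agilent 4 × 180k array carrying primer-extended double-stranded 36-bp intergenic genomic probes and negative controls received GST-tagged P. falciparum DNA-binding domains expressed in E. coli, about 25 μg on average, for 1 h. The binding buffer contained 1× PBS, 1% milk, 0.2 mg/ml BSA, 0.5% salmon testes DNA and 0.03% Triton X-100. Binding intensity is the top Masliner-normalised natural-log median intensity across replicate spots of either probe orientation, read after Alexa488 anti-GST antibody staining and a 488 nm scan.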

Sequence | gcPBM binding intensity (ln)
AATATATACATATATGTACACACATTACAGATGTAC [CACACA_site8227] | 8.61 ± 0.36
TTTTTCTTGAATCGAAGTACTTAGGAGGGGATATTT [XGTACX_site2862] | 9.28 ± 0.69
ACACAATATATATATTGTACATACACATATTTACTA [XGTACX_site1872] | 8.75 ± 0.18
ATAACGACCTAGACGTGTACATACAAAGGAATGAAA [XGTACX_site4870] | 8.88 ± 0.42
CATACACATAGACACACACACATATATACCTATATA [CACACA_site6644] | 8.65 ± 0.4
GAAATGTATATTTTTACATGCAAATAAAATATATAA [TGCATGCA_site439] | 8.94 ± 0.24
GAATATAAACATATTACACACATCTATAGGTACATT [CACACA_site6983] | 8.54 ± 0.36
GTGATTTAATTGTGTTGTACATATTTATAAATAAAA [XGTACX_site8966] | 8.72 ± 0.36
AAAAAAAAAAGAAACACACACATTTGTATTTAATAT [CACACA_site5184] | 8.31 ± 0.42
ATTCTATATACACGCACACACACTTATATATATATA [CACACA_site3322] | 10 ± 0.28
TTATTATTATATGAATGTACTTAAAAATACATTTTG [XGTACX_site2959] | 8.19 ± 0.33
CCCTTTTCTAAATATTGTACGTATAAATTATATTAC [XGTACX_site7676] | 8.96 ± 0.18
AAAAAGAAAAAACGAAGTACAATTATAAGATTATAT [XGTACX_site410] | 8.81 ± 0.56
TTGTTCTTTTTTTTTTTATTTTTTAATTTGAAAAGA [CACACA_negctrl_site209] | 8.43 ± 0.52
GTACAGATAAATATTACACACATTTTCATTTTTAAC [CACACA_site5140] | 8.58 ± 0.34
TATGAAAAATATCTTTGTACTTAGAAATATATACAC [XGTACX_site5393] | 8.38 ± 0.26
TATGTGCCAAGACACACACACATATTTATATTTATA [CACACA_site6360] | 8.54 ± 0.36
ATATTTATGTAATGTTTGATTTTTTTTTTATGTGTG [CACACA_negctrl_site1422] | 8.29 ± 0.41
ACATATACATACATATGTACATATACATAAATATAT [XGTACX_site1285] | 8.59 ± 0.35
CTATACAATAAAAATTGTACATACATATATGTTATA [XGTACX_site5309] | 8.37 ± 0.37
AATTTTTCTTTTTTTTGTACAGAATATATATTTTAT [XGTACX_site1419] | 8.71 ± 0.42
ATAATATGTTATTAAGTGCATATTAATTATTATTAT | 8.485 ± 0.049

Sequence | gcPBM binding intensity (ln)
TATATATATCTTTTGGTGCATATTTCGAATATATGT | 9.01 ± 0.12
TCGTTATCCATCTTCACACATATATATAGTAATATA [CACACA_site5492] | 9.03 ± 0.51
TATATATTTACATATTGTACAATATAAAAATAATTA [XGTACX_site19] | 8.34 ± 0.29
AAAAAAAAAATTGAAAGTACACAAATGGGGTATTAT [XGTACX_site3960] | 8.75 ± 0.35
TACTGTTTAAAATATACACACATAATCAAAAAAAAA [CACACA_site2510] | 8.37 ± 0.55
AATAAGCAGAAACACACACACAAAAAAAAAAAAAAA [CACACA_site719] | 8.07 ± 0.57
TATGTATAAATATTAACACACAAAAAAAAAAAAAAA [CACACA_site6938] | 8.28 ± 0.43
GTTTGATAACACCTACAAACTCTTTTTTTTTTTTTT [CACACA_negctrl_site1134] | 8.41 ± 0.53
ATATAAACAAAGCAGTGCACGTAAACAAAACATATA [CACACA_negctrl_site1076] | 9.51 ± 0.3
TACGAAAGGTAATATTGTACATTACAAAATTTTATA [XGTACX_site5512] | 8.43 ± 0.36
AAATTTATAAATTAAAGTACATATTTCTTGAATATT [XGTACX_site859] | 8.34 ± 0.48
TATAGATACACTTTGTGTACATAAAAATTGTATTAA [XGTACX_site7137] | 8.32 ± 0.26
TATTAAATTATATAGACACACATTATGTATATATAT [CACACA_site345] | 8.41 ± 0.29
AAATGAAGATTTAAATGTACGAGAGGGTATACAAAT [XGTACX_site5075] | 9.04 ± 0.48
CATAATATTAAATCAGTGCAAATATACAGAATAAAT [GTGCAC_site9786] | 9.02 ± 0.26
GACTTCTCCATATACACACACCAACAAATATAAAAA [CACACA_site7331] | 8.82 ± 0.46
ATATAATTTAATTTCTGTACATAAGAGAAAAAACAA [XGTACX_site4865] | 8.88 ± 0.45
AACATATACTGTTTATGTACACATTGTTATATTAAT [XGTACX_site4276] | 8.65 ± 0.39
TTATGCAAAAATAAATCAATATGTTGATATGTAAAT [GTGCAC_negctrl_site128] | 8.44 ± 0.28
TACATTTTATGCATTTGTACACAAATAAATAAATAA [XGTACX_site2652] | 8.37 ± 0.37
TTTTTTTTTTTTTATACACACATTAAAATAAAAAAG [CACACA_site3946] | 8.35 ± 0.44
AAAGAAAAAAAAAAAACACACAAAAAAAATCAAAAT [CACACA_site2871] | 8.44 ± 0.7
